B1: GCAUCUU (DNA:RNA)
RNA: GGGAGACCGGAAUUCAGAUUGUCCGCAUCUUUUAAAUCCCGUCGUAGCCACCA
DNA 1: CAATCTGAATTCCGGTCTCCC
DNA 2: TGGTGGCTACGACGGGATT
B2: GUCGGGU (DNA:RNA)
RNA: B1 RNA with C26U, A27C, U28G, C29G, U30G
DNA 1: CAATCTGAATTCCGGTCTCCC
DNA 2: TGGTGGCTACGACGGGATT
B3: CACCAAC (DNA:RNA)
RNA: GGGAGACCGGAAUUCAGAUUGUCCCACCAACUUAAAUCCCGUCGUAGCCACCA
DNA 1: CAATCTGAATTCCGGTCTCCC
DNA 2: TGGTGGCTACGACGGGATT
B4: UGACUGU (DNA:RNA)
RNA: B1 RNA with G25U, C26G, U28C, C29U, U30G
DNA 1: CAATCTGAATTCCGGTCTCCC
DNA 2: TGGTGGCTACGACGGGATT
B5: AUAAGUU (DNA:RNA)
RNA: B1 RNA with G25A, C26U, U28A, C29G
DNA 1: CAATCTGAATTCCGGTCTCCC
DNA 2: TGGTGGCTACGACGGGATT
B6: AGCACUC (DNA:RNA)
RNA: B3 RNA with C25A, A26G, C28A, A29C, A30U
DNA 1: CAATCTGAATTCCGGTCTCCC
DNA 2: TGGTGGCTACGACGGGATT
B7: CAACGAU (DNA:RNA)
RNA: B3 RNA with C27A, A29G, C31U
DNA 1: CAATCTGAATTCCGGTCTCCC
DNA 2: TGGTGGCTACGACGGGATT
B8: UUACUCG (DNA:RNA)
RNA: B3 RNA with C25U, A26U, C27A, A29U, A30C, C31G
DNA 1: CAATCTGAATTCCGGTCTCCC
DNA 2: TGGTGGCTACGACGGGATT
B9: ACCGGGU (DNA:RNA)
RNA: B1 RNA with G25A, A27C, U28G, C29G, U30G
DNA 1: CAATCTGAATTCCGGTCTCCC
DNA 2: TGGTGGCTACGACGGGATT
B10: AAUGGUG (DNA:RNA)
RNA: B3 RNA with C25A, C27U, C28G, A29G, A30U, C31G
DNA 1: CAATCTGAATTCCGGTCTCCC
DNA 2: TGGTGGCTACGACGGGATT
B11: CGGCUAC (DNA:RNA)
RNA: B3 RNA with A26G, C27G, A29U
DNA 1: CAATCTGAATTCCGGTCTCCC
DNA 2: TGGTGGCTACGACGGGATT
B12: UCUCAUC (DNA:RNA)
RNA: B3 RNA with C25U, A26C, C27U, A30U
DNA 1: CAATCTGAATTCCGGTCTCCC
DNA 2: TGGTGGCTACGACGGGATT
B13: UUUGAGC (DNA:RNA)
RNA: B3 RNA with C25U, A26U, C27U, C28G, A30G
DNA 1: CAATCTGAATTCCGGTCTCCC
DNA 2: TGGTGGCTACGACGGGATT
B14: UCCCUUG (DNA:RNA)
RNA: B3 RNA with C25U, A26C, A29U, A30U, C31G
DNA 1: CAATCTGAATTCCGGTCTCCC
DNA 2: TGGTGGCTACGACGGGATT
B15: CGUAAUA (DNA:RNA)
RNA: B3 RNA with A26G, C27U, C28A, A30U, C31A
DNA 1: CAATCTGAATTCCGGTCTCCC
DNA 2: TGGTGGCTACGACGGGATT
B16: GUCCUAU (DNA:RNA)
RNA: B3 RNA with C25G, A26U, A29U, C31U
DNA 1: CAATCTGAATTCCGGTCTCCC
DNA 2: TGGTGGCTACGACGGGATT
B17: UCGACAC (DNA:RNA)
RNA: B3 RNA with C25U, A26C, C27G, C28A, A29C
DNA 1: CAATCTGAATTCCGGTCTCCC
DNA 2: TGGTGGCTACGACGGGATT
B18: GCUUGCG (DNA:RNA)
RNA: B1 RNA with A27U, C29G, U30C, U31G
DNA 1: CAATCTGAATTCCGGTCTCCC
DNA 2: TGGTGGCTACGACGGGATT
B19: ACCAUGU (DNA:RNA)
RNA: B1 RNA with G25A, A27C, U28A, C29U, U30G
DNA 1: CAATCTGAATTCCGGTCTCCC
DNA 2: TGGTGGCTACGACGGGATT
B20: UGGAUGG (DNA:RNA)
RNA: GGGAGACCGGAAUUCAGAUUGUCCUGGAUGGUUAAAUCCCGUCGUAGCCACCA
DNA 1: CAATCTGAATTCCGGTCTCCC
DNA 2: TGGTGGCTACGACGGGATT
B21: CACGCUG (DNA:RNA)
RNA: B3 RNA with C28G, A29C, A30U, C31G
DNA 1: CAATCTGAATTCCGGTCTCCC
DNA 2: TGGTGGCTACGACGGGATT
B22: UGCCGCC (DNA:RNA)
RNA: B3 RNA with C25U, A26G, A29G, A30C
DNA 1: CAATCTGAATTCCGGTCTCCC
DNA 2: TGGTGGCTACGACGGGATT
B23: UGAGACU (DNA:RNA)
RNA: B1 RNA with G25U, C26G, U28G, C29A, U30C
DNA 1: CAATCTGAATTCCGGTCTCCC
DNA 2: TGGTGGCTACGACGGGATT
B24: AACGACU (DNA:RNA)
RNA: B3 RNA with C25A, C28G, A30C, C31U
DNA 1: CAATCTGAATTCCGGTCTCCC
DNA 2: TGGTGGCTACGACGGGATT
B25: GAUGUGU (DNA:RNA)
RNA: B1 RNA with C26A, A27U, U28G, C29U, U30G
DNA 1: CAATCTGAATTCCGGTCTCCC
DNA 2: TGGTGGCTACGACGGGATT
B26: CCCAAGC (DNA:RNA)
RNA: B3 RNA with A26C, C28A, A30G
DNA 1: CAATCTGAATTCCGGTCTCCC
DNA 2: TGGTGGCTACGACGGGATT
B27: GCUCCCA (DNA:RNA)
RNA: B1 RNA with A27U, U28C, U30C, U31A
DNA 1: CAATCTGAATTCCGGTCTCCC
DNA 2: TGGTGGCTACGACGGGATT
B28: UAUGGGC (DNA:RNA)
RNA: B3 RNA with C25U, C27U, C28G, A29G, A30G
DNA 1: CAATCTGAATTCCGGTCTCCC
DNA 2: TGGTGGCTACGACGGGATT
B29: ACGAAGC (DNA:RNA)
RNA: B20 RNA with U25A, G26C, U29A, G31C
DNA 1: CAATCTGAATTCCGGTCTCCC
DNA 2: TGGTGGCTACGACGGGATT
B30: CCUGUUU (DNA:RNA)
RNA: B1 RNA with G25C, A27U, U28G, C29U
DNA 1: CAATCTGAATTCCGGTCTCCC
DNA 2: TGGTGGCTACGACGGGATT
B31: UUCCGGA (DNA:RNA)
RNA: B3 RNA with C25U, A26U, A29G, A30G, C31A
DNA 1: CAATCTGAATTCCGGTCTCCC
DNA 2: TGGTGGCTACGACGGGATT

Residue numbers refer to the chain shown, from its start. This is one part of the list.

The assay addresses T1, RBFOX1 RRM RbFoxmut (Fox-RRM*) (Homo sapiens, UniProt Q9NWB1 109-208, R118D;E147R;N151S;E152T).
T1 sequence: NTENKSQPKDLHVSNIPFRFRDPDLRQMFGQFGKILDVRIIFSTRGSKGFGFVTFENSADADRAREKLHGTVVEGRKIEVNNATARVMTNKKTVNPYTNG
The experiment in a line: EMSA; HiTS-Eq, 1 nM pool, 10 min; buffer printed only for the single-RNA assays: 10 mM Tris pH 7.5, 150 mM NaCl, 3.4 mM EDTA, 0.001% NP-40, 30 C. The following applies: tags: His6 N-terminal (pET28a); label: 5' 32P. In a few lines:
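These values rest on relative association constants, computed from read-count changes of each RNA species versus the control reaction and normalised to the cognate motif. Reads came from free RNA recovered by 8% native PAGE after purified RbFox RRM (wild type or mutant) at increasing concentrations was equilibrated for 10 min in 50 µL with 1 nM of a 5′-radiolabelled pool with 7 randomized nucleotides and DNA-annealed flanks.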
In general terms: Mobility shift assays separate free from complexed probe on a gel.
With B1, the binding signal is 0.33 KA relative to UGCAUGU.
Consider B2, for which the binding signal is 0.132 KA relative to UGCAUGU.
Take B3: the binding signal was 0.0712 KA relative to UGCAUGU.
In the case of B4, the binding signal was 0.214 KA relative to UGCAUGU.
For the molecule B5, the binding signal was 0.113 KA relative to UGCAUGU.
In the case of B6 it was 0.0463 KA relative to UGCAUGU; in that of B7, 0.0618 KA relative to UGCAUGU; in that of B8, 0.103 KA relative to UGCAUGU.
The figure for B9 is 0.0688 KA relative to UGCAUGU; for B10 it is 0.0986 KA relative to UGCAUGU; for B11 it is 0.0923 KA relative to UGCAUGU.
Regarding B12, the binding signal was 0.0794 KA relative to UGCAUGU.
The figure for B13 is 0.122 KA relative to UGCAUGU; for B14 it is 0.124 KA relative to UGCAUGU; for B15 it is 0.126 KA relative to UGCAUGU.
B16: the binding signal was 0.104 KA relative to UGCAUGU.
Consider B17, for which the binding signal was 0.0688 KA relative to UGCAUGU.
The figure for B18 is 0.148 KA relative to UGCAUGU; for B19 it is 0.102 KA relative to UGCAUGU.
The figure for B20 is 0.332 KA relative to UGCAUGU.
In the case of B21 it was 0.109 KA relative to UGCAUGU.
In the case of B22, the binding signal was 0.121 KA relative to UGCAUGU.
Turning to B23, the binding signal was 0.0604 KA relative to UGCAUGU.
The figure for B24 is 0.0397 KA relative to UGCAUGU; for B25 it is 0.155 KA relative to UGCAUGU; for B26 it is 0.052 KA relative to UGCAUGU.
Turning to B27, the binding signal was 0.0854 KA relative to UGCAUGU.
The figure for B28 is 0.0938 KA relative to UGCAUGU; for B29 it is 0.0813 KA relative to UGCAUGU; for B30 it is 0.098 KA relative to UGCAUGU.
The figure for B31 is 0.0507 KA relative to UGCAUGU.

Source of the values: PMC9911399, “Two distinct binding modes provide the RNA-binding protein RbFox with extraordinary sequence specificity”.
